# Some of the results follow.
# Columns and labels:
# Assay in all cases: glycan array binding signal (z-score within array); higher = stronger binding
# Settings in all cases: glycan notation: IUPAC condensed, linker removed
# [1] = biological target: Neu5Gc(a2-8)Neu5Gc(a2-3)Gal(b1-4)GlcNAc(b1-3)Gal(b1-4)GlcNAc
# How it was run: (§1)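 From the Consortium for Functional Glycomics database, 3228 arrays were curated, keeping only those whose protein sequence was available. Binding is given as a within-array Z-score averaged across arrays sharing a protein sequence and across linkers. Negative Z-scores can be read as non-binding.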
# [2] = biological target: Neu5Gc(a2-8)Neu5Gc(a2-6)Gal(b1-4)GlcNAc
# How it was run: as §1
# [3] = biological target: Neu5Gc(b2-6)Gal(b1-4)GlcNAc
# How it was run: as §1
binder,measurement,setting,value
LFA (Limax flavus) (protein) MSVLFLAASFLLLASFELVAAQGCPRQDPGDWIVIQRRLNADVNFYRGWADYKHGFGDLRCNFWLGNEKIHQLTSHGRYKLRVEFTFNNKSYFAEYSTFKILGEADKYKLQVGGYSGNAGDALTFHNGMAFSTNDRDNDADSIDCAKVYHGAWWYKTCHESNLNGKWGSKKYGEGLNWKAKTTFTATATSSLLKIKALK,glycan array binding signal (z-score),[1],-0.237
same,glycan array binding signal (z-score),[2],-0.336
same,glycan array binding signal (z-score),[3],-0.314

# — the supplement of paper PMC8728848
